From patent publication US20190367516A1 (Bayer Pharma Aktiengesellschaft, priority 2015, published 2019)

Target: T1, human M2 receptor (Homo sapiens, UniProt P08172)
T1 sequence (P08172 1-466): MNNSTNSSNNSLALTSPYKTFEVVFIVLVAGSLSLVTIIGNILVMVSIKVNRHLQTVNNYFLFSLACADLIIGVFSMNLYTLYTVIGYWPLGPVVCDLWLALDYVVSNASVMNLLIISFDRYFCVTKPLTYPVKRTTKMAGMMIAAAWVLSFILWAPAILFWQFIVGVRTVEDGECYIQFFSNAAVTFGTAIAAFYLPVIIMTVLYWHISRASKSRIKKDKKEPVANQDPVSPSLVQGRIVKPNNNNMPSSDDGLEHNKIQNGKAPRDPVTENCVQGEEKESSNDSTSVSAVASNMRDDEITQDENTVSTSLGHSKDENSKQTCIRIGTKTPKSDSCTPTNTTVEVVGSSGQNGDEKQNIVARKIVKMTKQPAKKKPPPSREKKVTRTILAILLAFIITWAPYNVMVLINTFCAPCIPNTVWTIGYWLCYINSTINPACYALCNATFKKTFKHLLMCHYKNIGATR
Settings: read-out: Efficiency, M2-GIRK1/4 activation test; boosting of the acetylcholine effect at an EC20 acetylcholine concentration

Row | Structure (SMILES) | Emax [%]
1 | O=C(NC12CC3CC(CC(C3)C1)C2)c1cn(-c2ccc(F)cc2F)c2nc(N3CC[C@H](F)C3)ccc2c1=O [Example 61, 1-(2,4-Difluorophenyl)-7-[(3S)-3-fluoropyrrolidin-1-yl]-4-oxo-N-(tricyclo[3.3.1.1^3,7]dec-1-yl)-1,4-dihydro-1,8-naphthyridine-3-carboxamide] | 98.2
2 | O=C(NC12CC3CC(CC(F)(C3)C1)C2)c1cn(-c2ccc(F)cc2F)c2nc(N3CC[C@H](F)C3)ccc2c1=O [Example 62, 1-(2,4-Difluorophenyl)-7-[(3S,)-3-fluoropyrrolidin-1-yl]-N-(3-fluorotricyclo[3.3.1.1^3,7]dec-1-yl)-4-oxo-1,4-dihydro-1,8-naphthyridine-3-carboxamide] | 95.5
3 | O=C(NC12CCC(F)(CC1)CC2)c1cn(-c2ccc(F)cc2F)c2nc(N3CC[C@H](F)C3)ccc2c1=O [Example 63, 1-(2,4-Difluorophenyl)-N-(4-fluorobicyclo[2.2.2]oct-1-yl)-7-[(3S)-3-fluoropyrrolidin-1-yl]-4-oxo-1,4-dihydro-1,8-naphthyridine-3-carboxamide] | 88
4 | CC[C@H](NC(=O)c1cn(-c2ccc(F)cc2F)c2nc(N3CC[C@H](F)C3)ccc2c1=O)C(F)(F)F [Example 64, 1-(2,4-Difluorophenyl)-7-[(3S)-3-fluoropyrrolidin-1-yl]-4-oxo-N-[(2S)-1,1,1-trifluorobutan-2-yl]-1,4-dihydro-1,8-naphthyridine-3-carboxamide] | 89.7
5 | CC(C)CC(NC(=O)c1cn(-c2ccc(F)cc2F)c2nc(N3CC[C@H](F)C3)ccc2c1=O)C(F)(F)F (stereo partly drawn) [Example 65, 1-(2,4-Difluorophenyl)-7-[(3S)-3-fluoropyrrolidin-1-yl]-4-oxo-N-[1,1,1-trifluoro-4-methylpentan-2-yl]-1,4-dihydro-1,8-naphthyridine-3-carboxamide] | 93.7
6 | CCCC(NC(=O)c1cn(-c2ccc(F)cc2F)c2nc(N3CC[C@H](F)C3)ccc2c1=O)C(F)(F)F (stereo partly drawn) [Example 66, 1-(2,4-Difluorophenyl)-7-[(3S)-3-fluoropyrrolidin-1-yl]-4-oxo-N-[1,1,1-trifluoropentan-2-yl]-1,4-dihydro-1,8-naphthyridine-3-carboxamide] | 92
7 | O=C(NCC(F)(F)F)c1cn(-c2ccc(F)cc2F)c2nc(N3CC[C@H](F)C3)ccc2c1=O [Example 67, 1-(2,4-Difluorophenyl)-7-[(3S)-3-fluoropyrrolidin-1-yl]-4-oxo-N-(2,2,2-trifluoroethyl)-1,4-dihydro-1,8-naphthyridine-3-carboxamide] | 78
8 | O=C(NC1(C(F)(F)F)CC1)c1cn(-c2ccc(F)cc2F)c2nc(N3CC[C@H](F)C3)ccc2c1=O [Example 68, 1-(2,4-Difluorophenyl)-7-[(3S)-3-fluoropyrrolidin-1-yl]-4-oxo-N-[1-(trifluormethyl)cyclopropyl]-1,4-dihydro-1,8-naphthyridine-3-carboxamide] | 97.5
9 | CC(C)C(NC(=O)c1cn(-c2ccc(F)cc2F)c2nc(N3CC[C@H](F)C3)ccc2c1=O)C(F)(F)F (stereo partly drawn) [Example 69, 1-(2,4-Difluorophenyl)-7-[(3S)-3-fluoropyrrolidin-1-yl]-4-oxo-N-[1,1,1-trifluoro-3-methylbutan-2-yl]-1,4-dihydro-1,8-naphthyridine-3-carboxamide] | 99.5
10 | O=C(NC(C(F)(F)F)C(F)(F)F)c1cn(-c2ccc(F)cc2F)c2nc(N3CC[C@H](F)C3)ccc2c1=O [Example 70, 1-(2,4-Difluorophenyl)-7-[(3S)-3-fluoropyrrolidin-1-yl]-N-(1,1,1,3,3,3-hexafluoropropan-2-yl)-4-oxo-1,4-dihydro-1,8-naphthyridine-3-carboxamide] | 97.4
11 | CCC(NC(=O)c1cn(-c2ccc(F)cc2F)c2nc(N3CC[C@H](F)C3)ccc2c1=O)C(F)(F)F (stereo partly drawn) [Example 71, 1-(2,4-Difluorophenyl)-7-[(3S)-3-fluoropyrrolidin-1-yl]-4-oxo-N-[1,1,1-trifluorobutan-2-yl]-1,4-dihydro-1,8-naphthyridine-3-carboxamide] | 95
12 | O=C(NC12CC3CC(CC(C3)C1)C2)c1cn(-c2ccc(F)cc2F)c2nc(N3CC[C@@H](F)C3)ccc2c1=O [Example 72, 1-(2,4-Difluorophenyl)-7-[(3R)-3-fluoropyrrolidin-1-yl]-4-oxo-N-(tricyclo[3.3.1.1^3,7]dec-1-yl)-1,4-dihydro-1,8-naphthyridine-3-carboxamide] | 94
13 | O=C(NC12CC3CC(CC(C3)C1)C2)c1cn(-c2ccc(F)cc2F)c2nc(N3CCC(F)(F)C3)ccc2c1=O [Example 73, 1-(2,4-Difluorophenyl)-7-(3,3-difluoropyrrolidin-1-yl)-4-oxo-N-(tricyclo[3.3.1.1^3,7]dec-1-yl)-1,4-dihydro-1,8-naphthyridine-3-carboxamide] | 91.9
14 | CC[C@H](NC(=O)c1cn(-c2ccc(F)cc2F)c2nc(N3CCC(F)(F)C3)ccc2c1=O)C(F)(F)F [Example 75, 1-(2,4-Difluorophenyl)-7-(3,3-difluoropyrrolidin-1-yl)-4-oxo-N-[(2S)-1,1,1-trifluorobutan-2-yl]-1,4-dihydro-1,8-naphthyridine-3-carboxamide] | 87
15 | O=C(NC12CC3CC(CC(C3)C1)C2)c1cn(-c2ccc(F)cc2F)c2nc(N3CC(F)(F)C(F)(F)C3)ccc2c1=O [Example 77, 1-(2,4-Difluorophenyl)-4-oxo-7-(3,3,4,4-tetrafluoropyrrolidin-1-yl)-N-(tricyclo[3.3.1.1^3,7]dec-1-yl)-1,4-dihydro-1,8-naphthyridine-3-carboxamide] | 100
16 | CC(C)CC(NC(=O)c1cn(-c2ccc(F)cc2F)c2nc(N3CCS(=O)(=O)C3)ccc2c1=O)C(F)(F)F (centres unmarked) [Example 78, 1-(2,4-Difluorophenyl)-7-(1,1-dioxido-1,3-thiazolidin-3-yl)-4-oxo-N-[1,1-trifluoro-4-methylpentan-2-yl]-1,4-dihydro-1,8-naphthyridine-3-carboxamide] | 94.3
17 | O=C(NC12CC3CC(CC(C3)C1)C2)c1cn(-c2ccc(F)cc2F)c2nc(NCCO)ccc2c1=O [Example 79, 1-(2,4-Difluorophenyl)-7-[(2-hydroxyethyl)amino]-4-oxo-N-(tricyclo[3.3.1.1^3,7]dec-1-yl)-1,4-dihydro-1,8-naphthyridine-3-carboxamide] | 92.2
18 | CC(C)CC(NC(=O)c1cn(-c2ccc(F)cc2F)c2nc(NCCO)ccc2c1=O)C(F)(F)F (centres unmarked) [Example 80, 1-(2,4-Difluorophenyl)-7-[(2-hydroxyethyl)amino]-4-oxo-N-[1,1,1-trifluoro-4-methylpentan-2-yl]-1,4-dihydro-1,8-naphthyridine-3-carboxamide] | 94
19 | CCCC(NC(=O)c1cn(-c2ccc(F)cc2F)c2nc(NCCO)ccc2c1=O)C(F)(F)F (centres unmarked) [Example 81, 1-(2,4-Difluorophenyl)-7-[(2-hydroxyethyl)amino]-4-oxo-N-[1,1,1-trifluoropentan-2-yl]-1,4-dihydro-1,8-naphthyridine-3-carboxamide] | 89.7
20 | CN(CCO)c1ccc2c(=O)c(C(=O)NC34CC5CC(CC(C5)C3)C4)cn(-c3ccc(F)cc3F)c2n1 [Example 82, 1-(2,4-Difluorophenyl)-7-[(2-hydroxyethyl)(methyl)amino]-4-oxo-N-(tricyclo[3.3.1.1^3,7]dec-1-yl)-1,4-dihydro-1,8-naphthyridine-3-carboxamide] | 100
21 | O=C(NC12CC3CC(CC(C3)C1)C2)c1cn(-c2ccc(F)cc2F)c2nc(NCCF)ccc2c1=O [Example 83, 1-(2,4-Difluorophenyl)-7-[(2-fluoroethyl)amino]-4-oxo-N-(tricyclo[3.3.1.1^3,7]dec-1-yl)-1,4-dihydro-1,8-naphthyridine-3-carboxamide] | 88.9
22 | CC[C@H](NC(=O)c1cn(-c2ccc(F)cc2F)c2nc(NCCF)ccc2c1=O)C(F)(F)F [Example 87, 1-(2,4-Difluorophenyl)-7-[(2-fluoroethyl)amino]-4-oxo-N-[(2S)-1,1,1-trifluorobutan-2-yl]-1,4-dihydro-1,8-naphthyridine-3-carboxamide] | 94
23 | CC(C)CC(NC(=O)c1cn(-c2ccc(F)cc2F)c2nc(NCCF)ccc2c1=O)C(F)(F)F (centres unmarked) [Example 88] | 95
24 | O=C(NC(C(F)(F)F)C(F)(F)F)c1cn(-c2ccc(F)cc2F)c2nc(NCCF)ccc2c1=O [Example 89, 1-(2,4-Difluorophenyl)-7-[(2-fluoroethyl)amino]-N-(1,1,1,3,3,3-hexafluoropropan-2-yl)-4-oxo-1,4-dihydro-1,8-naphthyridine-3-carboxamide] | 96.6
25 | O=C(NC12CC3CC(CC(C3)C1)C2)c1cn(-c2ccc(F)cc2F)c2nc(NCC(F)(F)F)ccc2c1=O [Example 90, 1-(2,4-Difluorophenyl)-4-oxo-N-(tricyclo[3.3.1.1^3,7]dec-1-yl)-7-[(2,2,2-trifluoroethyl)amino]-1,4-dihydro-1,8-naphthyridine-3-carboxamide] | 94.7
26 | O=C(NC12CC3CC(CC(F)(C3)C1)C2)c1cn(-c2ccc(F)cc2F)c2nc(NCC(F)(F)F)ccc2c1=O [Example 91, 1-(2,4-Difluorophenyl)-N-(3-fluorotricyclo[3.3.1.1^3,7]dec-1-yl)-4-oxo-7-[(2,2,2-trifluoroethyl)amino]-1,4-dihydro-1,8-naphthyridine-3-carboxamide] | 90.5
